# “Also recorded” adds a separate entry of the source. Certain results were filed several times, with different values. This list holds those alone. How the calls were made is not given here. There may be further records. Values that stand side by side are repeats (runs, samples, wells, individuals or studies). Brackets tell where a record comes from. Letters hold for one entry only.
# Tested on: CCRIS mutagenicity, Ames/micronucleus/aberration tests
# Assay: CCRIS mutagenicity studies
# [1] = Test System: AMES SALMONELLA TYPHIMURIUM, Strain/Indicator: TA98, Metabolic Activation: NONE, Method: STANDARD PLATE
smiles,measurement,setting,value
c1ccc2c(c1)CCCC2,mutagenic call,"Test System: MOUSE LYMPHOMA, Strain/Indicator: L5178Y (TK+/TK-), Metabolic Activation: NONE, Method: SUSPENSION/PLATE",inactive; positive. reevaluation of results: negative [study A]; also recorded: inactive; negative [study B]
COc1cc(CNC(=O)CCCCCCC(C)C)ccc1O,mutagenic call,[1],"active; positive [study A, 100 to 1000 µg/plate] and inactive; negative [study B, 10 to 10000 µg/plate]"
CC(=O)Nc1ccc2ccc3c(O)ccc4ccc1c2c43,mutagenic call,[1],"inactive; negative [study A, 0.1 to 5 µg/plate] and active; positive [study B, 0.01 to 5 µg/plate]"
O=C(O)c1cc2c(c3c1c([N+](=O)[O-])cc1ccccc13)OCO2,mutagenic call,[1],active; positive [study A] and inactive; negative [study B]
COC1=CC(=O)c2c(nc(C)c3c2[nH]c2ccccc23)C1=O,mutagenic call,"Test System: AMES SALMONELLA TYPHIMURIUM, Strain/Indicator: TA102, Metabolic Activation: NONE, Method: STANDARD PLATE","inactive; negative [study A, 5 to 30 µg/plate] and active; positive [study B, 2.5 to 20 µg/plate]"
c1ccc2cc3c(ccc4ccncc43)cc2c1,mutagenic call,"Test System: AMES SALMONELLA TYPHIMURIUM, Strain/Indicator: TA100, Metabolic Activation: NONE, Method: STANDARD PLATE","inactive; negative [study A, 0.1 to 50 µg/plate] and active; positive [study B, 0 to 50 µg/plate]"
CC(C)(C)C1=CC(=O)C=CC1=O,mutagenic call,"Test System: AMES SALMONELLA TYPHIMURIUM, Strain/Indicator: TA98, Metabolic Activation: NONE, Method: PREINCUBATION","inactive; negative [study A, 0 to 10 µg/plate] and inactive; negative [study B, 0.05 to 10 µg/plate] and active; positive [study C, 2 to 52 µg/plate]"
same,mutagenic call,"Test System: AMES SALMONELLA TYPHIMURIUM, Strain/Indicator: TA100, Metabolic Activation: NONE, Method: PREINCUBATION","inactive; negative [study A, 0 to 10 µg/plate] and inactive; negative [study B, 0.05 to 10 µg/plate] and active; positive [study C, 2 to 52 µg/plate]"
c1ccc2cc3c(ccc4ccccc43)cc2c1,mutagenic call,"Test System: AMES SALMONELLA TYPHIMURIUM, Strain/Indicator: TA98, Metabolic Activation: RAT, LIVER, S-9, AROCLOR 1254, Method: STANDARD PLATE",inactive; negative [study A] and active; positive [study B]

# Reference: PubChem BioAssay AID1259407 (Chemical Carcinogenesis Research Information System (CCRIS), 2018)
